From the supplement of paper PMC7826260
The other results are listed elsewhere or left out. Cleavage of a single-stranded DNA pool by Rep nickase domains was read by sequencing (1 h at 37 °C, 3 µM enzyme); the outer parts of the 90-letter strands are left off. Uncut reads are compared with the no-enzyme pool on a log2 scale; uncut sequences lie near 0, cut ones below; no hit call is given. Counts are relative to all reads, so uncut sequences can rise above 0 when many others are cut.

test system: T1, Rep nickase domain of Muscovy duck circovirus; experiment: uncleaved DNA left, log2 of reads against the no-enzyme library (log2 ratio); higher = less cleavage (more negative = more Rep cleavage of the k-mer); sequences stand for … in CTCGTCCG…ACCGGAGA
T1 sequence (residues 1-111, tag not shown): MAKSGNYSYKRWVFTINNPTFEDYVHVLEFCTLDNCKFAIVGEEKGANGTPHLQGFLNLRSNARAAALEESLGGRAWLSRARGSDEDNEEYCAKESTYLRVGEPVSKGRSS
Experimental: (§1)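 A pool of 90-nt single-stranded DNAs with seven random bases just before the constant AC of the nick site (name = the seven bases) was cut by 3 µM recombinant His6-SUMO-tagged Rep nickase domain (300 nM DNA, 50 mM HEPES pH 8.0, 50 mM NaCl, 1 mM MnCl2, 1 h, 37 °C, three replicates). Uncut DNA was amplified and sequenced.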

| Sequence | uncleaved DNA left (log2) |
| --- | --- |
| GGTGGTG | 0.152 |
| GGCTTCC | 0.0806 |
| ACGGGAA | -0.0361 |
| CTGGGCC | -0.0132 |
| ACAGAAG | 0.0726 |
| GCTGTAT | -0.0449 |
| TCAGACT | 0.0476 |
| ATGCGAC | 0.0246 |
| ATCAGCT | -0.059 |
| ACCTAAA | 0.0715 |
| CCGGTTC | 0.0215 |
| CCACATG | 0.06 |
| CTATCTA | -0.116 |
| AGGCCAG | -0.0395 |
| CGTCCGA | -0.0128 |
| GGATCAT | -0.0388 |
| ATAGTTA | -0.0477 |
| CTATACA | -0.189 |
| CATTGCA | -0.0631 |
| TCTGCAC | -0.1 |

| Sequence | uncleaved DNA left (log2) |
| --- | --- |
| CGAATTT | -0.0193 |
| GCTCGCG | -0.0837 |
| GTGCGAC | 0.00635 |
| CCGGGCA | 0.08 |
| CGTGCCC | -0.168 |
| GTGAGCT | -0.12 |
| CTTCTAG | 0.00754 |
| TCCGCGT | 0.0333 |
| ACACTCC | -0.0464 |
| CAAGTTA | -0.138 |
| TTCAGTT | 0.0225 |
| GTCGATA | -0.0917 |
| TCGTGTT | -3.18 |
| ATGATAT | -0.0759 |
| TAGGTTA | 0.118 |
| CCTCCGA | -0.0017 |
| AGAAAGG | 0.114 |
| TTGGATC | -0.0382 |
| TCACATG | -0.0576 |
| CACCCCG | -0.0341 |

test system: T2, Rep nickase domain of banana bunchy top virus; experiment: as above
T2 sequence (residues 1-94, tag not shown): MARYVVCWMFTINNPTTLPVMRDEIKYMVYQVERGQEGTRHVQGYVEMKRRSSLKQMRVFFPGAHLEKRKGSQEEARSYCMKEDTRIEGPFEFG
Experimental: as §1

| Sequence | uncleaved DNA left (log2) |
| --- | --- |
| GGTGGTG | -0.0395 |
| GGCTTCC | -0.0132 |
| ACGGGAA | -0.00684 |
| CTGGGCC | -0.0993 |
| ACAGAAG | 0.03 |
| GCTGTAT | 0.103 |
| TCAGACT | -0.119 |
| ATGCGAC | -0.0774 |
| ATCAGCT | -0.0238 |
| ACCTAAA | -0.0875 |
| CCGGTTC | 0.00539 |
| CCACATG | -0.0715 |
| CTATCTA | 0.0929 |
| AGGCCAG | 0.0194 |
| CGTCCGA | 0.0122 |
| GGATCAT | -0.0482 |
| ATAGTTA | -0.14 |
| CTATACA | 0.0748 |
| CATTGCA | -0.0816 |
| TCTGCAC | -0.0832 |

| Sequence | uncleaved DNA left (log2) |
| --- | --- |
| CGAATTT | -0.182 |
| GCTCGCG | -0.096 |
| GTGCGAC | -0.165 |
| CCGGGCA | -0.0564 |
| CGTGCCC | -0.0573 |
| GTGAGCT | -0.00514 |
| CTTCTAG | 0.0501 |
| TCCGCGT | -0.053 |
| ACACTCC | 0.0182 |
| CAAGTTA | -0.0266 |
| TTCAGTT | -0.0131 |
| GTCGATA | 0.0274 |
| TCGTGTT | -1.33 |
| ATGATAT | -0.114 |
| TAGGTTA | 0.0181 |
| CCTCCGA | -0.0308 |
| AGAAAGG | 0.137 |
| TTGGATC | -0.0704 |
| TCACATG | 0.0838 |
| CACCCCG | 0.00452 |

test system: T3, Rep nickase domain of cabbage leaf curl virus; experiment: as above
T3 sequence (residues 1-116, tag not shown): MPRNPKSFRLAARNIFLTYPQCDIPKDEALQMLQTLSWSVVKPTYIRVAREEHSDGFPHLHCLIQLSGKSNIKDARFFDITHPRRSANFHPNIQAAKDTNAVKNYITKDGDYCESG
Experimental: as §1

| Sequence | uncleaved DNA left (log2) |
| --- | --- |
| GGTGGTG | -0.227 |
| GGCTTCC | 0.498 |
| ACGGGAA | 0.0924 |
| CTGGGCC | 0.103 |
| ACAGAAG | -0.554 |
| GCTGTAT | 0.246 |
| TCAGACT | 0.0405 |
| ATGCGAC | -0.0882 |
| ATCAGCT | -0.515 |
| ACCTAAA | -0.127 |
| CCGGTTC | 0.327 |
| CCACATG | -0.461 |
| CTATCTA | -0.0878 |
| AGGCCAG | -0.224 |
| CGTCCGA | 0.0289 |
| GGATCAT | 0.795 |
| ATAGTTA | -0.146 |
| CTATACA | 0.0104 |
| CATTGCA | -0.498 |
| TCTGCAC | -0.333 |

| Sequence | uncleaved DNA left (log2) |
| --- | --- |
| CGAATTT | -0.0874 |
| GCTCGCG | -0.54 |
| GTGCGAC | 0.0643 |
| CCGGGCA | 0.466 |
| CGTGCCC | -0.0843 |
| GTGAGCT | 0.24 |
| CTTCTAG | -0.836 |
| TCCGCGT | -0.686 |
| ACACTCC | -0.0404 |
| CAAGTTA | -0.206 |
| TTCAGTT | -0.115 |
| GTCGATA | 0.292 |
| TCGTGTT | -2.66 |
| ATGATAT | 0.094 |
| TAGGTTA | 0.3 |
| CCTCCGA | -0.113 |
| AGAAAGG | 0.177 |
| TTGGATC | 0.132 |
| TCACATG | -0.486 |
| CACCCCG | -0.751 |

test system: T4, Rep nickase domain of chickpea chlorotic dwarf virus; experiment: as above
T4 sequence (residues 1-124, tag not shown): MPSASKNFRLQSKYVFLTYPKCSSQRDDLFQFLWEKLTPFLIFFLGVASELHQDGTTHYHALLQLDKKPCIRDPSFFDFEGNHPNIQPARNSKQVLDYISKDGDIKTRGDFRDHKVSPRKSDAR
Experimental: as §1

| Sequence | uncleaved DNA left (log2) |
| --- | --- |
| GGTGGTG | 0.0476 |
| GGCTTCC | 1.14 |
| ACGGGAA | 0.593 |
| CTGGGCC | 0.467 |
| ACAGAAG | 0.337 |
| GCTGTAT | 0.397 |
| TCAGACT | -1.15 |
| ATGCGAC | 0.225 |
| ATCAGCT | -1.46 |
| ACCTAAA | -0.119 |
| CCGGTTC | 0.226 |
| CCACATG | -0.545 |
| CTATCTA | -1.22 |
| AGGCCAG | -0.139 |
| CGTCCGA | 0.411 |
| GGATCAT | 1.91 |
| ATAGTTA | -1.29 |
| CTATACA | -2.11 |
| CATTGCA | 0.794 |
| TCTGCAC | -0.703 |

| Sequence | uncleaved DNA left (log2) |
| --- | --- |
| CGAATTT | -1.97 |
| GCTCGCG | 0.823 |
| GTGCGAC | 0.506 |
| CCGGGCA | 0.729 |
| CGTGCCC | 0.00958 |
| GTGAGCT | 0.6 |
| CTTCTAG | -0.518 |
| TCCGCGT | -0.379 |
| ACACTCC | 0.476 |
| CAAGTTA | -1.57 |
| TTCAGTT | -1.79 |
| GTCGATA | 0.714 |
| TCGTGTT | -3.19 |
| ATGATAT | 0.0578 |
| TAGGTTA | -0.109 |
| CCTCCGA | -0.151 |
| AGAAAGG | 0.733 |
| TTGGATC | 0.634 |
| TCACATG | -0.658 |
| CACCCCG | -0.0378 |

test system: T5, Rep nickase domain of faba bean necrotic yellows virus; experiment: as above
T5 sequence (residues 1-98, tag not shown): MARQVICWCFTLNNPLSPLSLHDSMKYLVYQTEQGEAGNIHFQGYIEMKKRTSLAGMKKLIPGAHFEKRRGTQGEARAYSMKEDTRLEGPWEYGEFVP
Experimental: as §1

| Sequence | uncleaved DNA left (log2) |
| --- | --- |
| GGTGGTG | 0.0577 |
| GGCTTCC | 0.0471 |
| ACGGGAA | -0.0136 |
| CTGGGCC | -0.133 |
| ACAGAAG | 0.187 |
| GCTGTAT | 0.0512 |
| TCAGACT | -0.12 |
| ATGCGAC | -0.0632 |
| ATCAGCT | -0.0371 |
| ACCTAAA | 0.105 |
| CCGGTTC | 0.0451 |
| CCACATG | 0.0227 |
| CTATCTA | 0.0201 |
| AGGCCAG | 0.0156 |
| CGTCCGA | -0.0267 |
| GGATCAT | -0.0616 |
| ATAGTTA | 0.074 |
| CTATACA | 0.00283 |
| CATTGCA | -0.0115 |
| TCTGCAC | -0.0869 |

| Sequence | uncleaved DNA left (log2) |
| --- | --- |
| CGAATTT | -0.0633 |
| GCTCGCG | -0.027 |
| GTGCGAC | -0.0346 |
| CCGGGCA | -0.03 |
| CGTGCCC | -0.173 |
| GTGAGCT | -0.089 |
| CTTCTAG | -0.026 |
| TCCGCGT | 0.0655 |
| ACACTCC | 0.109 |
| CAAGTTA | -0.0888 |
| TTCAGTT | -0.0901 |
| GTCGATA | -0.0309 |
| TCGTGTT | -2.54 |
| ATGATAT | -0.12 |
| TAGGTTA | 0.00463 |
| CCTCCGA | 0.0638 |
| AGAAAGG | 0.0548 |
| TTGGATC | -0.0411 |
| TCACATG | -0.0897 |
| CACCCCG | 0.0518 |
